The values that follow come from PubChem BioAssay AID1159614 (National Center for Advancing Translational Sciences (NCATS), 2016).

Out of some 45,000 compounds screened, about 65 (0.1%) were called active. Calls follow the shape of the dose curve; as a rule, active = well fitted activation curve with a large enough effect; inconclusive = small, poorly fitted or top-dose-only effect; inactive = no such curve, though single readings can be large or run the other way. The list shows a part of the results.

In this experiment the target is Galactocerebrosidase (Homo sapiens) (UniProt P54803). The experiment can be described thus: A Novel Cell-Based Assay to Identify Small Molecules for B -Galactocerebrosidase. Also: 0% is about no effect; nearly all actives have a fitted effect of over 65% in size. The conditions noted are these: 145M-Twi-hGALC-G270D cells (Twitcher mouse brain line with human GALC G270D), HMU-beta-Gal fluorescence, 48 h; series mostly up to 57.5 µM; activation: at the top concentration. The gist of the method: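 Live 145M-Twi cells (Twitcher mouse brain-derived, GALC-null) stably expressing human GALC-G270D, with a wild-type GALC line, were compound-treated. Residual GALC activity was then read as fluorescence from 0.1 mM final HMU-β-gal at pH 5.2; higher signal means activation.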
UniProt P54803, sequence (P54803 whole entry, looked up): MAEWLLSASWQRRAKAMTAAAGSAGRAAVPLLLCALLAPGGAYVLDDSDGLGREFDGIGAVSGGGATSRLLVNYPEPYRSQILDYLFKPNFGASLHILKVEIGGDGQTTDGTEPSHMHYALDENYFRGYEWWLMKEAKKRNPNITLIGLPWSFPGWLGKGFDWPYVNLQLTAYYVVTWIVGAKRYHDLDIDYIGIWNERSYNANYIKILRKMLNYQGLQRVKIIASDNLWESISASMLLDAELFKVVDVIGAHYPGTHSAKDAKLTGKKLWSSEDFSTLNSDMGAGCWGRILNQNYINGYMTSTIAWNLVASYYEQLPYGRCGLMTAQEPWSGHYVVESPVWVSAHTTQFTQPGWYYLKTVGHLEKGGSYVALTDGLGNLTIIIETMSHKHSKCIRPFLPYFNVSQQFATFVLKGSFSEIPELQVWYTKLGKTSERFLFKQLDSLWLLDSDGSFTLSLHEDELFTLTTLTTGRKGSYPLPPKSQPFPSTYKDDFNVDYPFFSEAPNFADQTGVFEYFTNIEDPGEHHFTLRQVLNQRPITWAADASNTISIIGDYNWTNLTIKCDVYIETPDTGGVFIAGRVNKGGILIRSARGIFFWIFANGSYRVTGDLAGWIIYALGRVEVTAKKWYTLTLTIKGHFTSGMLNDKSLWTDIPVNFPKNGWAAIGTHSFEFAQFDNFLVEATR
For the molecule `CC(=O)Nc1cccc(-c2nc(-c3ccccc3)no2)c1`, the “activation” value was inactive: 15.1%.

For the molecule `CCOC(=O)c1ccc(N2C(=O)c3n[nH]c(-c4ccco4)c3C2c2ccc(C(=O)OC)cc2)cc1` (centres undefined), the “activation” value is inactive: 9.44%.

With `COC(=O)c1ccccc1NC(=O)[C@H]1O[C@@H]2OC(C)(C)O[C@@H]2[C@H]2OC(C)(C)O[C@H]21`, the “activation” value is inactive: -8.56%.

Turning to `Cc1cc(C)cc(OCC(=O)Nc2cccc3cccnc23)c1`, the “activation” value was inactive: -11.3%.

With `CC(=O)OCC(=O)[C@@]1(O)CCC2C3CCC4=CC(=O)CC[C@]4(C)C3[C@@H](O)C[C@@]21C` (some centres undefined), the “activation” value is inactive: -21.3%.

`CCOc1ccc(CNC(=O)c2oc3c(c2C)-c2nn(Cc4cccc(Cl)c4)cc2CC3)cc1`: the “activation” value is inactive: -17.5%.

For `COc1ccc(C)c2sc(NC(=O)c3ccc(S(=O)(=O)N(C)C)cc3)nc12`, the “activation” value was inactive: -20.1%.

`COc1ccccc1CCNC(=O)Cc1c(C)c2cc(Cl)c(O)cc2oc1=O`: the “activation” value is inactive: -22.8%.

As for `CC(C)c1ccc(S(=O)(=O)N2CCN(Cc3cccc(F)c3)CC2)cc1`, the “activation” value is inactive: -1.25%.

In the case of `CCCCOc1ccccc1C1CC(=O)Nc2ccc3ccccc3c21` (centres undefined), the “activation” value was inactive: -15.9%.

As to `Cc1ccc(N(C)C(=O)c2sc3nc4n(c(=O)c3c2C)CCCC4)cc1C`, the “activation” value was inactive: -14.6%.

Turning to `COc1ccc(NC(=O)CSc2ncc3c(n2)-c2ccccc2N(Cc2ccc(C)cc2)S3(=O)=O)cc1Cl`, the “activation” value was inactive: 5.6%.

For the molecule `CN(C)CC[C@@H](c1ccc(Cl)cc1)c1ccccn1`, the “activation” value is inactive: -4.08%.

For `COCCCn1c(=O)c2sccc2n2c(CCCC(=O)NCc3cccc(OC)c3)nnc12`, the “activation” value was inactive: 3.16%.

With `CCOc1ccc(-c2cccc(NS(=O)(=O)c3ccc(C)s3)c2)nn1`, the “activation” value was inactive: -15.8%.

Turning to `CCCCN(CC)C(=O)CSc1nc2n[nH]c(C)c2c(=N)n1-c1ccc(CC)cc1`, the “activation” value was inactive: -13.4%.

Consider `CCOC(=O)C1CCN(C(=O)c2cc3sc(C)cc3n2C)CC1`, for which the “activation” value is inactive: -9.5%.

As to `O=C(CCC1N=C2c3ccccc3N=C(SCC(=O)Nc3cccc(Cl)c3)N2C1=O)NCc1ccco1` (centres undefined), the “activation” value was inactive: -15.6%.

Turning to `NC(=O)C1CCN(S(=O)(=O)c2cc3c(cc2Cl)NC(=O)CO3)CC1`, the “activation” value was inactive: -12.1%.

With `CCOc1ccc(NS(=O)(=O)c2c(C)nc3sc(C)c(C)n3c2=O)cc1`, the “activation” value is inactive: -4.96%.

In the case of `CCOC(=O)C1CCN(C(=O)c2ccccc2NC(=O)c2nsc3ccccc23)CC1`, the “activation” value was inactive: 8.74%.

Consider `O=C(CSc1ncc(-c2ccccc2)[nH]1)Nc1ccccc1`, for which the “activation” value is inactive: -12.1%.

Turning to `CCN1C(=O)c2ccccc2S(=O)(=O)c2ccc(C(=O)NCc3ccccc3)cc21`, the “activation” value is inactive: -11%.

As for `Cc1nc2nc(NC(=O)c3ccc(C(C)(C)C)cc3)[nH]n2c(=O)c1C`, the “activation” value is inactive: -9.15%.

Turning to `CCCCOc1ccc(C(=O)Nc2ccc3c(c2)CCCN3C(=O)c2cccs2)cc1`, the “activation” value is inactive: -21.4%.

Regarding `CCOC(=O)C1CCC(CN(Cc2ccc(Cl)cc2)S(=O)(=O)c2cccc(Cl)c2C)CC1` (centres undefined), the “activation” value is inactive: -13.2%.

For `Cc1nn(C(=O)c2c(F)cccc2F)c(C)c1S(=O)(=O)N1CCCCCC1`, the “activation” value is inactive: -6.04%.

Take `CCCc1nnc(NC(=O)Nc2ccccc2Cl)s1`: the “activation” value was inactive: -15%.

Turning to `Cc1nc2nc(C)c(NS(=O)(=O)c3ccc(CC(C)C)cc3)c(=O)n2[nH]1`, the “activation” value was inactive: -9.02%.

`CCOc1ccc(OCC)c(NC(=O)C2CCCN(S(=O)(=O)c3cc(Br)cc4c3N(C(=O)CC)CC4)C2)c1` (centres undefined): the “activation” value was inactive: -2.72%.

On to `Cn1c(=O)c2c(-c3ccccc3)n(CCCO)cc2n(C)c1=O`, for which the “activation” value is inactive: -13.5%.

As to `COc1ccc(NC(=O)Cn2cc(C(=O)c3ccccc3OC)c(=O)c3ccc(C)nc32)cc1OC`, the “activation” value was inactive: 4.37%.

As to `CCn1c(CN2CCOCC2)nc2cc(NC(=O)c3cccc([N+](=O)[O-])c3)ccc21`, the “activation” value was inactive: -23.9%.

With `COc1ccc(C)cc1NC(=O)c1nnn(-c2c(C)cccc2C)c1C`, the “activation” value is inactive: -6.44%.

Take `CC(=O)Nc1nnc2n1CCS2`: the “activation” value is inactive: 2.9%.

For the molecule `Cc1ccc(CN2CCC(CNC(=O)Nc3ccc(C)c(C)c3)C2)cc1` (centres undefined), the “activation” value is inactive: -17%.

Turning to `CCCCc1ccc2nc(NC(=O)OC)[nH]c2c1`, the “activation” value is inactive: -13.8%.

For the molecule `CC(C)N(C(=O)Cn1cc(SCC(=O)Nc2ccccc2C(F)(F)F)c2ccccc21)C(C)C`, the “activation” value was inactive: 7.3%.

As for `CCOc1ccc(C2C(C(=O)Nc3ccccc3C)=C(C)Nc3nnnn32)cc1` (centres undefined), the “activation” value is inactive: -18.8%.

On to `CC(N)C12CC3CC(CC(C3)C1)C2` (centres undefined), for which the “activation” value is inactive: -8.22%.

`Cc1ccc(C)c(NC(=O)/C(C#N)=C/c2ccc(C(C)C)cc2)c1`: the “activation” value is inactive: -19.4%.

With `COc1ccc(C)cc1NC(=O)c1oc2ccc(S(=O)(=O)N3CCC4(CC3)OCCO4)cc2c1C`, the “activation” value was inactive: -7.52%.

`CCOCCn1cnc2sc(C(=O)Nc3ccccc3C(=O)OC)c(C)c2c1=O`: the “activation” value was inactive: -17.2%.

With `O=C(Cn1ccc2cc(S(=O)(=O)N3CCCCC3)ccc21)NCc1ccccc1Cl`, the “activation” value was inactive: -18.6%.

`Cn1c(=O)c2c(c3ccccc31)OC(=O)CC2c1cccc(Cl)c1` (centres undefined): the “activation” value was inactive: 3.08%.

As to `COc1ccccc1/C=C/c1nc(C#N)c(NCC(C)C)o1`, the “activation” value was inactive: -2.35%.

Turning to `COc1cc(NC(=O)CN2Cc3ccccc3C2=O)cc(OC)c1OC`, the “activation” value is inactive: -9.73%.

As to `Cc1ccc(-c2nc(CCNC(=O)C(=O)Nc3c(C)cccc3C)cs2)cc1`, the “activation” value was inactive: -11.5%.

With `CCCN(CCC)C(=O)c1nn(C)c2c1CSc1ccc(C)cc1-2`, the “activation” value was inactive: -17.6%.

For the molecule `CC(C)Cn1c(=O)c2ccccc2n2c(CCC(=O)Nc3ccc(F)cc3)nnc12`, the “activation” value was inactive: -5.49%.

Consider `Cc1c(C(=O)NCCO)[n+](=O)c2ccccc2n1[O-]`, for which the “activation” value was inactive: -5.15%.

Turning to `CCOc1cccc(CC(=O)N2CCc3c([nH]c4ccccc34)C2c2ccc(SC)cc2)c1OCC` (centres undefined), the “activation” value is inactive: -8.9%.

For `COc1ccc(N2C(=O)CSC23C(=O)N(Cc2ccc(C)cc2)c2ccccc23)cc1Cl` (centres undefined), the “activation” value is inactive: -39.3%.

As to `CCOc1ccc(NC(=O)Cn2nc(Cc3ccncc3)c3ccccc3c2=O)cc1`, the “activation” value was inactive: 17.8%.

As for `COc1ccc(C(=O)c2oc3ccccc3c2NC(=O)c2cccc(OC)c2)cc1`, the “activation” value was inactive: -3.2%.

For `CCOC(=O)c1cc(-c2ccccc2)n(CCCC(=O)Nc2ccccc2C)c1C`, the “activation” value was inactive: -18.9%.

As for `COc1ccc(-n2ccnc(NCc3ccccc3Cl)c2=O)cc1OC`, the “activation” value is inactive: 2.51%.

Turning to `COc1ccc(CNC(=O)C(CC(C)C)N2Cc3ccccc3C2=O)cc1` (centres undefined), the “activation” value was inactive: -8.92%.

For the molecule `CCN(CC)CCOC(=O)c1ccc(Nc2c3c(nc4ccccc24)CCC3)cc1`, the “activation” value was inactive: -14.9%.

With `CC(C)CN(CCNC(=O)c1cc(-c2cccs2)nc2ccccc12)CC(C)C`, the “activation” value is inactive: -5.83%.

For the molecule `CCOc1ccccc1CNC(=O)c1cnc2sc(N(CC)CC)nn2c1=O`, the “activation” value was inactive: -24.9%.

For `Cc1ccc2nc(COc3cccc(NC(=O)c4ccccc4Cl)c3)cc(=O)n2c1`, the “activation” value is inactive: -12.6%.

Turning to `CCN(CC)CCOC(=O)c1ccc(NC(=O)c2cc3c(s2)-c2ccccc2OC3)cc1`, the “activation” value is inactive: 4.25%.

In the case of `Cc1nc(-c2ccc(S(=O)(=O)Nc3ccc(Cl)c(C(F)(F)F)c3)cc2)co1`, the “activation” value is inactive: 10.1%.
